Consider 20 molecules from article PMC9911399, “Two distinct binding modes provide the RNA-binding protein RbFox with extraordinary sequence specificity”.

Sequences and labels used below:
T1: RBFOX1 RRM RbFoxmut (Fox-RRM*) (Homo sapiens, UniProt Q9NWB1 109-208, R118D;E147R;N151S;E152T)
T1 sequence: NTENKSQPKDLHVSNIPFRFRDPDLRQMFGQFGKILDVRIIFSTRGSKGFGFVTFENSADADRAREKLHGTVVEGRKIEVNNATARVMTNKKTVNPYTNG

B1: UAUUUAA (DNA:RNA)
RNA: GGGAGACCGGAAUUCAGAUUGUCCUAUUUAAUUAAAUCCCGUCGUAGCCACCA
DNA 1: CAATCTGAATTCCGGTCTCCC
DNA 2: TGGTGGCTACGACGGGATT
B2: AAGCGGC (DNA:RNA)
RNA: B1 RNA with U25A, U27G, U28C, U29G, A30G, A31C
DNA 1: CAATCTGAATTCCGGTCTCCC
DNA 2: TGGTGGCTACGACGGGATT
B3: UUUAUUC (DNA:RNA)
RNA: B1 RNA with A26U, U28A, A30U, A31C
DNA 1: CAATCTGAATTCCGGTCTCCC
DNA 2: TGGTGGCTACGACGGGATT
B4: ACUUGGC (DNA:RNA)
RNA: B1 RNA with U25A, A26C, U29G, A30G, A31C
DNA 1: CAATCTGAATTCCGGTCTCCC
DNA 2: TGGTGGCTACGACGGGATT
B5: CCUCGCC (DNA:RNA)
RNA: B1 RNA with U25C, A26C, U28C, U29G, A30C, A31C
DNA 1: CAATCTGAATTCCGGTCTCCC
DNA 2: TGGTGGCTACGACGGGATT
B6: CGCCGAG (DNA:RNA)
RNA: B1 RNA with U25C, A26G, U27C, U28C, U29G, A31G
DNA 1: CAATCTGAATTCCGGTCTCCC
DNA 2: TGGTGGCTACGACGGGATT
B7: CGCUGGU (DNA:RNA)
RNA: B1 RNA with U25C, A26G, U27C, U29G, A30G, A31U
DNA 1: CAATCTGAATTCCGGTCTCCC
DNA 2: TGGTGGCTACGACGGGATT
B8: GACCGGA (DNA:RNA)
RNA: B1 RNA with U25G, U27C, U28C, U29G, A30G
DNA 1: CAATCTGAATTCCGGTCTCCC
DNA 2: TGGTGGCTACGACGGGATT
B9: UCAUCAC (DNA:RNA)
RNA: B1 RNA with A26C, U27A, U29C, A31C
DNA 1: CAATCTGAATTCCGGTCTCCC
DNA 2: TGGTGGCTACGACGGGATT
B10: ACCGACC (DNA:RNA)
RNA: GGGAGACCGGAAUUCAGAUUGUCCACCGACCUUAAAUCCCGUCGUAGCCACCA
DNA 1: CAATCTGAATTCCGGTCTCCC
DNA 2: TGGTGGCTACGACGGGATT
B11: UGUUCAC (DNA:RNA)
RNA: B1 RNA with A26G, U29C, A31C
DNA 1: CAATCTGAATTCCGGTCTCCC
DNA 2: TGGTGGCTACGACGGGATT
B12: GAAUCAA (DNA:RNA)
RNA: B1 RNA with U25G, U27A, U29C
DNA 1: CAATCTGAATTCCGGTCTCCC
DNA 2: TGGTGGCTACGACGGGATT
B13: CCUUUAG (DNA:RNA)
RNA: B1 RNA with U25C, A26C, A31G
DNA 1: CAATCTGAATTCCGGTCTCCC
DNA 2: TGGTGGCTACGACGGGATT
B14: CGCUGCA (DNA:RNA)
RNA: B10 RNA with A25C, C26G, G28U, A29G, C31A
DNA 1: CAATCTGAATTCCGGTCTCCC
DNA 2: TGGTGGCTACGACGGGATT
B15: UAAUGCC (DNA:RNA)
RNA: B1 RNA with U27A, U29G, A30C, A31C
DNA 1: CAATCTGAATTCCGGTCTCCC
DNA 2: TGGTGGCTACGACGGGATT
B16: UACACUG (DNA:RNA)
RNA: B1 RNA with U27C, U28A, U29C, A30U, A31G
DNA 1: CAATCTGAATTCCGGTCTCCC
DNA 2: TGGTGGCTACGACGGGATT
B17: AAUUACA (DNA:RNA)
RNA: B1 RNA with U25A, U29A, A30C
DNA 1: CAATCTGAATTCCGGTCTCCC
DNA 2: TGGTGGCTACGACGGGATT
B18: AUGUCCA (DNA:RNA)
RNA: B10 RNA with C26U, C27G, G28U, A29C, C31A
DNA 1: CAATCTGAATTCCGGTCTCCC
DNA 2: TGGTGGCTACGACGGGATT
B19: GGUUCCG (DNA:RNA)
RNA: B1 RNA with U25G, A26G, U29C, A30C, A31G
DNA 1: CAATCTGAATTCCGGTCTCCC
DNA 2: TGGTGGCTACGACGGGATT
B20: GACGUGG (DNA:RNA)
RNA: B10 RNA with A25G, C26A, A29U, C30G, C31G
DNA 1: CAATCTGAATTCCGGTCTCCC
DNA 2: TGGTGGCTACGACGGGATT

Substitutions are numbered along the chain they refer to; changes in the protein carry UniProt numbers. Some of the results follow.

The target in the assay is T1, RBFOX1 RRM RbFoxmut (Fox-RRM*). Kind of assay: EMSA; HiTS-Eq, 1 nM pool, 10 min; buffer printed only for the single-RNA assays: 10 mM Tris pH 7.5, 150 mM NaCl, 3.4 mM EDTA, 0.001% NP-40, 30 C. To be noted: tags: His6 N-terminal (pET28a); label: 5' 32P. In a few lines:
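Relative association constants, normalised to the cognate motif, were derived by comparing read counts of each RNA species with those of the control reaction. The RNA sequenced was the free fraction, separated by 8% native PAGE after a 10 min equilibration in 50 µL of 1 nM 5′-radiolabelled RNA (7 randomized nucleotides) with increasing concentrations of purified wild-type or mutant RbFox RRM.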
Background: Mobility shift assays separate free from complexed probe on a gel.
Turning to B1, the binding signal is 0.0892 KA relative to UGCAUGU.
With B2 the figure was 0.104 KA relative to UGCAUGU; with B3, 0.0919 KA relative to UGCAUGU.
The value for B4 was 0.154 KA relative to UGCAUGU; that for B5 was 0.115 KA relative to UGCAUGU.
As for B6, the binding signal is 0.114 KA relative to UGCAUGU.
The value for B7 was 0.128 KA relative to UGCAUGU; that for B8 was 0.0775 KA relative to UGCAUGU.
With B9 the figure was 0.0874 KA relative to UGCAUGU.
Regarding B10, the binding signal was 0.0659 KA relative to UGCAUGU.
The value for B11 was 0.0944 KA relative to UGCAUGU.
For B12, the binding signal is 0.259 KA relative to UGCAUGU.
The value for B13 was 0.139 KA relative to UGCAUGU; that for B14 was 0.236 KA relative to UGCAUGU; that for B15 was 0.164 KA relative to UGCAUGU.
The value for B16 was 0.0655 KA relative to UGCAUGU; that for B17 was 0.101 KA relative to UGCAUGU; that for B18 was 0.135 KA relative to UGCAUGU.
With B19 the figure was 0.168 KA relative to UGCAUGU; with B20, 0.0986 KA relative to UGCAUGU.
